{"source": "patent US20250361299A1", "about": "(published 2025)", "binders": {"B1": {"name": "1.6 proBiTE after uPA digestion (bispecific antibody)", "heavy": "SDNHGGSSGGSEVQLVESGGGLVQPGGSLRLSCAASGFTFNTYAMNWVRQAPGKGLEWVARIRSKYNNYATYYADSVKGRFTISRDDSKNTLYLQMNSLRAEDTAVYYCARHGNFGSSYVSYFAYWGQGTTVTVSSASTKGPSVFPLAPSSKSTSGGTAALGCLVKDYFPEPVTVSWNSGALTSGVHTFPAVLQSSGLYSLSSVVTVPSSSLGTQTYICNVNHKPSNTKVDKKVEPKS[human IgG1 Fc with T366L Y407H (EU numbers) cut from this listing]GGGGSGGGGSGGGGSEVQLVETGGGVVQPGRSLRLSCAASGFTFSSYAMHWVRQAPGKGLEWVAVISYDGSNKYYADSVKGRFTISRDNSKNTLYLQMNSLRAEDTAVYYCARGYVARGDFDYWGQGTLVTVSS", "light": "EIVVTQSPATLSVSPGERATLSCRSSTGAVTTSNYANWVQQKPGQAPRGLIGGANKRAPGVPARFSGSLSGDEATLTISSLQSEDFAVYYCALWYSNLWVFGQGTKLEIKRTVAAPSVFIFPPSDEQLKSGTASVVCLLNNFYPREAKVQWKVDNALQSGNSQESVTEQDSKDSTYSLSSTLTLSKADYEKHKVYACEVTHQGLSSPVTKSFNRGE[human IgG1 Fc with T366L Y407H (EU numbers) cut from this listing]GGGGSGGGGSGGGGSDVVMTQSPSTLSASVGDRVTITCRASQSMSRWLAWYQQKPGKGPKLLIYATSTLQSGVPSRFSGSGSGTEFTLTISSLQPEDFATYYCQQLDSFPFSFTFGPGTKVDLK"}, "B2": {"name": "1.7.1 proBiTE after uPA digestion (bispecific antibody)", "heavy": "SDNHGGGGSEVQLVESGGGLVQPGGSLRLSCAASGFTFNTYAMNWVRQAPGKGLEWVARIRSKYNNYATYYADSVKGRFTISRDDSKNTLYLQMNSLRAEDTAVYYCARHGNFGSSYVSYFAYWGQGTTVTVSSASTKGPSVFPLAPSSKSTSGGTAALGCLVKDYFPEPVTVSWNSGALTSGVHTFPAVLQSSGLYSLSSVVTVPSSSLGTQTYICNVNHKPSNTKVDKKVEPKS[human IgG1 Fc with T366L Y407H (EU numbers) cut from this listing]GGGGSGGGGSGGGGSGGGGSEVQLVETGGGVVQPGRSLRLSCAASGFTFSSYAMHWVRQAPGKGLEWVAVISYDGSNKYYADSVKGRFTISRDNSKNTLYLQMNSLRAEDTAVYYCARGYVARGDFDYWGQGTLVTVSSGGGGSGGGGSGGGGSGGGGSDVVMTQSPSTLSASVGDRVTITCRASQSMSRWLAWYQQKPGKGPKLLIYATSTLQSGVPSRFSGSGSGTEFTLTISSLQPEDFATYYCQQLDSFPFSFTFGPGTKVDLK", "light": "EIVVTQSPATLSVSPGERATLSCRSSTGAVTTSNYANWVQQKPGQAPRGLIGGANKRAPGVPARFSGSLSGDEATLTISSLQSEDFAVYYCALWYSNLWVFGQGTKLEIKRTVAAPSVFIFPPSDEQLKSGTASVVCLLNNFYPREAKVQWKVDNALQSGNSQESVTEQDSKDSTYSLSSTLTLSKADYEKHKVYACEVTHQGLSSPVTKSFNRGE[human IgG1 Fc with T366L Y407H (EU numbers) cut from this listing]GGGGSGGGGSGGGGSGGGGSEVQLVETGGGVVQPGRSLRLSCAASGFTFSSYAMHWVRQAPGKGLEWVAVISYDGSNKYYADSVKGRFTISRDNSKNTLYLQMNSLRAEDTAVYYCARGYVARGDFDYWGQGTLVTVSSGGGGSGGGGSGGGGSGGGGSDVVMTQSPSTLSASVGDRVTITCRASQSMSRWLAWYQQKPGKGPKLLIYATSTLQSGVPSRFSGSGSGTEFTLTISSLQPEDFATYYCQQLDSFPFSFTFGPGTKVDLK"}, "B3": {"name": "1.6.1 proBiTE after uPA digestion (bispecific antibody)", "heavy": "SDNHGGGGSEVQLVESGGGLVQPGGSLRLSCAASGFTFNTYAMNWVRQAPGKGLEWVARIRSKYNNYATYYADSVKGRFTISRDDSKNTLYLQMNSLRAEDTAVYYCARHGNFGSSYVSYFAYWGQGTTVTVSSASTKGPSVFPLAPSSKSTSGGTAALGCLVKDYFPEPVTVSWNSGALTSGVHTFPAVLQSSGLYSLSSVVTVPSSSLGTQTYICNVNHKPSNTKVDKKVEPKS[human IgG1 Fc with T366L Y407H (EU numbers) cut from this listing]", "light": "EVQLVETGGGVVQPGRSLRLSCAASGFTFSSYAMHWVRQAPGKGLEWVAVISYDGSNKYYADSVKGRFTISRDNSKNTLYLQMNSLRAEDTAVYYCARGYVARGDFDYWGQGTLVTVSSGGGGSGGGGSGGGGSGGGGSDVVMTQSPSTLSASVGDRVTITCRASQSMSRWLAWYQQKPGKGPKLLIYATSTLQSGVPSRFSGSGSGTEFTLTISSLQPEDFATYYCQQLDSFPFSFTFGPGTKVDLKGGGGSGGGGSGGGGSGGGGSEIVVTQSPATLSVSPGERATLSCRSSTGAVTTSNYANWVQQKPGQAPRGLIGGANKRAPGVPARFSGSLSGDEATLTISSLQSEDFAVYYCALWYSNLWVFGQGTKLEIKRTVAAPSVFIFPPSDEQLKSGTASVVCLLNNFYPREAKVQWKVDNALQSGNSQESVTEQDSKDSTYSLSSTLTLSKADYEKHKVYACEVTHQGLSSPVTKSFNRGE[human IgG1 Fc with T366L Y407H (EU numbers) cut from this listing]"}}, "assay_in_all_cases": "ELISA; with uPA", "key": {"Recombinant human EGFR [1]": {"target": "T1, Recombinant human EGFR (human, UniProt P00533 part only)"}, "Human CD3 protein [2]": {"target": "T2, Human CD3 protein (human, UniProt P07766 23-126)", "T2 chain": "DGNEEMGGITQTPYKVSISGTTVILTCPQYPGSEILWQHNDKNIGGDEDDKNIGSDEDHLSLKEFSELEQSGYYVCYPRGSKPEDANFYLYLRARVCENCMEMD"}, "Recombinant human EGFR [3]": {"target": "T1, Recombinant human EGFR", "remark": "listed apart in the source"}, "Human CD3 protein [4]": {"target": "T2, Human CD3 protein"}}, "note": "Read-outs that look alike come from different tables or passages of the source."}
{"binder": "B1", "values": [{"measurement": "EC50", "setting": "Recombinant human EGFR [1]", "result": 30.2, "unit": "µg/mL"}, {"measurement": "EC50", "setting": "Human CD3 protein [2]", "result": 2.98, "unit": "µg/mL"}]}
{"binder": "B2", "values": [{"measurement": "EC50", "setting": "Recombinant human EGFR [3]", "result": 9.09, "unit": "µg/mL"}, {"measurement": "EC50", "setting": "Human CD3 protein [4]", "result": 2.33, "unit": "µg/mL"}]}
{"binder": "B3", "values": [{"measurement": "EC50", "setting": "Recombinant human EGFR [3]", "result": 1.19, "unit": "µg/mL"}, {"measurement": "EC50", "setting": "Human CD3 protein [4]", "result": 0.72, "unit": "µg/mL"}]}
